Data on 44 sequences can be found in the supplement of paper PMC11417369.

± gives the standard deviation of the averaged measurements. The list shows a part of the results.

The subject of the test is PfAP2-LT AP2 domain (GST-tagged). The test is described as follows: gcPBM binding intensity (ln(normalized median fluorescence intensity)); higher = stronger DNA binding. In a few lines: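 The binding buffer was 1× PBS containing 1% milk, 0.2 mg/ml BSA, 0.5% salmon testes DNA and 0.03% Triton X-100. In it, GST-tagged P. falciparum DNA-binding domains expressed in E. coli were applied for 1 h to an Agilent 4 × 180k array of primer-extended double-stranded 36-bp intergenic genomic probes plus negative controls. Binding intensity, read with Alexa488 anti-GST antibody and a 488 nm scan, is the highest Masliner-normalised natural-log median intensity across replicate spots of either probe orientation.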
As to “TATGTATAGATATATACACACTTCTGTGATACGAAA [CACACA_site7003]”, the “gcPBM binding intensity (ln)” value came to 8.84 ± 0.35.

For “TAAAGAGTCATGTGGTGTACCTGCTTCACCACATAT [XGTACX_site1288]”, the “gcPBM binding intensity (ln)” value amounted to 8.91 ± 0.3. Next, “TATATATTCATAAAGTGTACATGTTTATATATATAT [XGTACX_site7585]”: 8.83 ± 0.4; “TTATTTTTAATATCGGTGCAACAAAAAGGAAAAGAT [GTGCAC_site9482]”: 8.85 ± 0.37; “TATTATATGTAGTTGAGTACATATAAATACATATAT [XGTACX_site7933]”: 8.79 ± 0.4. Next, “AAATAGTTAAAAAGGCGTACACATAAATAAATAAAT [XGTACX_site2096]”: 9.2 ± 0.52; “AATCTAATATAATGCACACATAAAAAAAAATCAAAC [CACACA_site3633]”: 9.14 ± 0.45. Next, “GTATATATATATATATATATAATAGTAACTTTTACT [CACACA_negctrl_site608]”: 9.11 ± 0.26; “TGTAGTCTGGAGAAAAGTACATAGTATCTGGTAACA [XGTACX_site4940]”: 8.72 ± 0.57. As for “TTTTAATTTTAAAAATGTACTTTTATTATTTTTAAT [XGTACX_site8300]”, the “gcPBM binding intensity (ln)” value came out at 8.34 ± 0.39. Next, “TAAAAATTAAAATGTTGTACAATGATAAAATATTAT [XGTACX_site7874]”: 8.75 ± 0.44.

As to “TATTTGATAAAAAAAAGTACTAGAATTTCGCTTTTG [XGTACX_site7754]”, the “gcPBM binding intensity (ln)” value came to 8.37 ± 0.39.

Take “ATTTATTTATATACAAGTACATAAAAAATTAACTTA [XGTACX_site6170]”: the “gcPBM binding intensity (ln)” value was 8.3 ± 0.43.

Turning to “AAATTATAAAATAACTGTACCAATCCTTTTTTTTTA [XGTACX_site2229]”, the “gcPBM binding intensity (ln)” value came to 8.33 ± 0.48. “TAAATTGAAATATATTGTACATTATCAACTAAGGGA [XGTACX_site1635]”: the “gcPBM binding intensity (ln)” value turned out to be 8.55 ± 0.4.

On to “CTCAACATATACGTAACACACATATAAATATAAATA [CACACA_site7749]”, for which the “gcPBM binding intensity (ln)” value worked out at 8.99 ± 0.44.

As to “CATATATACCTATATACACACATATAGATTTATATA [CACACA_site6451]”, the “gcPBM binding intensity (ln)” value came to 8.91 ± 0.43. Next, “TTATTCTACATATATGCATGTGTATGATCTGTTTAT [TGCATGCA_site782]”: 9.09 ± 0.38; “AAAATAAAAAAAATGTAAAAGGTTAAAGTGAAATAT [CACACA_negctrl_site350]”: 8.92 ± 0.42. Next, “ATATAAATGATATGTACACACATTTATATATATAAA [CACACA_site3475]”: 9.09 ± 0.47.

“TGATATTATCTCTTCACACACTCACATACAGACAAA [CACACA_site1246]”: the “gcPBM binding intensity (ln)” value turned out to be 8.99 ± 0.21.

Consider “AAAAAAAAAATATTTGAACACACGAGGATATATAAA [CACACA_site139]”, for which the “gcPBM binding intensity (ln)” value was found to be 8.76 ± 0.55. Next, “TATATTTAATTATTTTGTACTCATATAAAGATGATG [XGTACX_site5488]”: 8.42 ± 0.51; “TACAGACATACATACACACATACATACAGACATACA [CACACA_site1941]”: 9.43 ± 0.38; “CACACGCACGAACACACACACACACGCACGCACATA [CACACA_site6305]”: 10.4 ± 0.13.

Take “TACATATTTACTATCACACACACGATATAAATAAAT [CACACA_site6701]”: the “gcPBM binding intensity (ln)” value is 9.35 ± 0.29. Next, “AATAAAATTTGCGATGCACACAGAATAGCTAATATG [CACACA_site8983]”: 9.2 ± 0.33; “TTATTTTACTTTTATGCAACTAAAAATATTGCTATA [XGTACX_negctrl_site277]”: 8.56 ± 0.5. Next, “ATATTCAATTCATACACACACAATTTAAGAATGATA [CACACA_site3883]”: 9.22 ± 0.41. Next, “CATATAGATTTGTTCACACACACACTAAAAAAAAAA [CACACA_site7212]”: 9.37 ± 0.44. On to “ACAAATGTGAGAAAGACACACATATAATAAAAAACA [CACACA_site1156]”, for which the “gcPBM binding intensity (ln)” value is 9.23 ± 0.44. Next, “ATACATATATAATTATGTACGTATATTTTATATAAC [XGTACX_site4292]”: 8.91 ± 0.41; “ATGAATAAAAAAGGTGGTACATATATATATATATAT [XGTACX_site7893]”: 9.82 ± 0.11; “TGTCTTGTAAATTATTGTACTATTTAAAGTATAAAA [XGTACX_site7863]”: 8.23 ± 0.33. Next, “AAAATAATATAAATAATATAAGTGAGCATATATATA [TGCATGCA_negctrl_site527]”: 8.76 ± 0.45. “AAAAAGGTTATTGGTACACACATATGTATATATATA [CACACA_site552]”: the “gcPBM binding intensity (ln)” value was 9.12 ± 0.45. As for “ATATGTGTGTAGTGTTCAATTATATTGATGTGAAGG [TGCATGCA_negctrl_site462]”, the “gcPBM binding intensity (ln)” value worked out at 9.31 ± 0.45. Take “GAACCGTGCAAATGTTGTACACTTTAAAAATATTCT [XGTACX_site4488]”: the “gcPBM binding intensity (ln)” value came out at 8.79 ± 0.49.

With “ATAATATATATATTAACACACATCCTTTTATGTATA [CACACA_site1203]”, the “gcPBM binding intensity (ln)” value came out at 8.91 ± 0.35.

On to “TTATAATAATTTTATGCACACAGAAAAATACAAGGT [CACACA_site9169]”, for which the “gcPBM binding intensity (ln)” value was 9.2 ± 0.32.

As to “TAGGAGCCTAGACACACACACAAAAAAAAAAAAAAA [CACACA_site6911]”, the “gcPBM binding intensity (ln)” value stood at 9.34 ± 0.64. Next, “TACATATAGAAACACACACACATATATATATATATA [CACACA_site1300]”: 10.1 ± 0.35; “AAAACGAAAATTTGGAAACCAAAGGAAAAACATAAT [GTGCAC_negctrl_site709]”: 9.1 ± 0.47.

As to “TATATAAGAATTTTTACACACATGAAAATGTAGATA [CACACA_site3735]”, the “gcPBM binding intensity (ln)” value was 8.74 ± 0.37.
